Laboratory results: publication PMC9911399, “Two distinct binding modes provide the RNA-binding protein RbFox with extraordinary sequence specificity”
Substitutions are numbered along the chain they refer to; changes in the protein carry UniProt numbers. The list shows a part of the results.

T1: RBFOX1 RRM RbFoxmut (Fox-RRM*) (Homo sapiens, UniProt Q9NWB1 109-208, R118D;E147R;N151S;E152T)
T1 sequence: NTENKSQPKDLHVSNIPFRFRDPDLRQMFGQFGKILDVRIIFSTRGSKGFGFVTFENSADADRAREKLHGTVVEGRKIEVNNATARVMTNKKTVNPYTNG

B1: AUCGGUC (DNA:RNA)
RNA: GGGAGACCGGAAUUCAGAUUGUCCAUCGGUCUUAAAUCCCGUCGUAGCCACCA
DNA 1: CAATCTGAATTCCGGTCTCCC
DNA 2: TGGTGGCTACGACGGGATT
B2: UAGCAUC (DNA:RNA)
RNA: B1 RNA with A25U, U26A, C27G, G28C, G29A
DNA 1: CAATCTGAATTCCGGTCTCCC
DNA 2: TGGTGGCTACGACGGGATT
B3: ACAAAUG (DNA:RNA)
RNA: B1 RNA with U26C, C27A, G28A, G29A, C31G
DNA 1: CAATCTGAATTCCGGTCTCCC
DNA 2: TGGTGGCTACGACGGGATT
B4: AAUGCAU (DNA:RNA)
RNA: B1 RNA with U26A, C27U, G29C, U30A, C31U
DNA 1: CAATCTGAATTCCGGTCTCCC
DNA 2: TGGTGGCTACGACGGGATT
B5: UUGGGGG (DNA:RNA)
RNA: B1 RNA with A25U, C27G, U30G, C31G
DNA 1: CAATCTGAATTCCGGTCTCCC
DNA 2: TGGTGGCTACGACGGGATT
B6: CGGAGUU (DNA:RNA)
RNA: B1 RNA with A25C, U26G, C27G, G28A, C31U
DNA 1: CAATCTGAATTCCGGTCTCCC
DNA 2: TGGTGGCTACGACGGGATT
B7: GGUGUUG (DNA:RNA)
RNA: B1 RNA with A25G, U26G, C27U, G29U, C31G
DNA 1: CAATCTGAATTCCGGTCTCCC
DNA 2: TGGTGGCTACGACGGGATT
B8: GCGGUUC (DNA:RNA)
RNA: B1 RNA with A25G, U26C, C27G, G29U
DNA 1: CAATCTGAATTCCGGTCTCCC
DNA 2: TGGTGGCTACGACGGGATT
B9: CUGGAAG (DNA:RNA)
RNA: B1 RNA with A25C, C27G, G29A, U30A, C31G
DNA 1: CAATCTGAATTCCGGTCTCCC
DNA 2: TGGTGGCTACGACGGGATT
B10: GGACUUG (DNA:RNA)
RNA: B1 RNA with A25G, U26G, C27A, G28C, G29U, C31G
DNA 1: CAATCTGAATTCCGGTCTCCC
DNA 2: TGGTGGCTACGACGGGATT
B11: CUGUACC (DNA:RNA)
RNA: B1 RNA with A25C, C27G, G28U, G29A, U30C
DNA 1: CAATCTGAATTCCGGTCTCCC
DNA 2: TGGTGGCTACGACGGGATT
B12: AUACCUG (DNA:RNA)
RNA: B1 RNA with C27A, G28C, G29C, C31G
DNA 1: CAATCTGAATTCCGGTCTCCC
DNA 2: TGGTGGCTACGACGGGATT
B13: CCAACGA (DNA:RNA)
RNA: GGGAGACCGGAAUUCAGAUUGUCCCCAACGAUUAAAUCCCGUCGUAGCCACCA
DNA 1: CAATCTGAATTCCGGTCTCCC
DNA 2: TGGTGGCTACGACGGGATT
B14: UUUCGUG (DNA:RNA)
RNA: B1 RNA with A25U, C27U, G28C, C31G
DNA 1: CAATCTGAATTCCGGTCTCCC
DNA 2: TGGTGGCTACGACGGGATT
B15: UGCCUGG (DNA:RNA)
RNA: B1 RNA with A25U, U26G, G28C, G29U, U30G, C31G
DNA 1: CAATCTGAATTCCGGTCTCCC
DNA 2: TGGTGGCTACGACGGGATT
B16: CAGGAUG (DNA:RNA)
RNA: B1 RNA with A25C, U26A, C27G, G29A, C31G
DNA 1: CAATCTGAATTCCGGTCTCCC
DNA 2: TGGTGGCTACGACGGGATT
B17: GAGUGCU (DNA:RNA)
RNA: B1 RNA with A25G, U26A, C27G, G28U, U30C, C31U
DNA 1: CAATCTGAATTCCGGTCTCCC
DNA 2: TGGTGGCTACGACGGGATT
B18: AGGUUUU (DNA:RNA)
RNA: B1 RNA with U26G, C27G, G28U, G29U, C31U
DNA 1: CAATCTGAATTCCGGTCTCCC
DNA 2: TGGTGGCTACGACGGGATT
B19: GCGGGUU (DNA:RNA)
RNA: B1 RNA with A25G, U26C, C27G, C31U
DNA 1: CAATCTGAATTCCGGTCTCCC
DNA 2: TGGTGGCTACGACGGGATT
B20: CUAAAAA (DNA:RNA)
RNA: B13 RNA with C26U, C29A, G30A
DNA 1: CAATCTGAATTCCGGTCTCCC
DNA 2: TGGTGGCTACGACGGGATT

These binders were tested against T1, RBFOX1 RRM RbFoxmut (Fox-RRM*) (assay: EMSA; HiTS-Eq, 1 nM pool, 10 min; buffer printed only for the single-RNA assays: 10 mM Tris pH 7.5, 150 mM NaCl, 3.4 mM EDTA, 0.001% NP-40, 30 C). Details: tags: His6 N-terminal (pET28a); label: 5' 32P.
Outline: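 A pool of RNA with 7 randomized nucleotides, 5′-radiolabelled and with DNA-annealed flanks, was equilibrated at 1 nM for 10 min in 50 µL with purified RbFox RRM, wild type or mutant, across increasing protein concentrations. Free RNA was separated by 8% native PAGE, excised, reverse-transcribed, barcoded by PCR and sequenced. Relative association constants were obtained from read-count changes of each RNA species versus the control reaction and normalised to the cognate motif.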
B1 was tested, and the binding signal was 0.182 KA relative to UGCAUGU. In the case of B2, the binding signal is reported as 0.266 KA relative to UGCAUGU. For B3, the binding signal was 0.107 KA relative to UGCAUGU. B4 was tested, and the binding signal was 0.11 KA relative to UGCAUGU. B5 was tested, and the binding signal was 0.0724 KA relative to UGCAUGU. For B6, the binding signal was 0.0808 KA relative to UGCAUGU. B7 was tested, and the binding signal was 0.321 KA relative to UGCAUGU. For B8, the binding signal was 0.148 KA relative to UGCAUGU. B9 was tested, and the binding signal was 0.0969 KA relative to UGCAUGU. For B10, the binding signal was 0.201 KA relative to UGCAUGU. For B11, the binding signal was 0.137 KA relative to UGCAUGU. With B12 the binding signal was 0.0917 KA relative to UGCAUGU. For B13, the binding signal was 0.0717 KA relative to UGCAUGU. B14 was tested, and the binding signal was 0.119 KA relative to UGCAUGU. In the case of B15, the binding signal is reported as 0.233 KA relative to UGCAUGU. B16 was tested, and the binding signal was 0.218 KA relative to UGCAUGU. For B17, the binding signal was 0.118 KA relative to UGCAUGU. In the case of B18, the binding signal is reported as 0.068 KA relative to UGCAUGU. B19 was tested, and the binding signal was 0.124 KA relative to UGCAUGU. B20 was tested, and the binding signal was 0.086 KA relative to UGCAUGU.
